Among all 340,000 compounds or so, about 6,900 (2%) were called active. Rule as the data show it: active = inhibition above about 30%; inactive = below that, where a call was filed. The entries are a selection whose mix differs from that of the whole data set. Entries without a call were filed so in the source.
What follows are compounds tested against D(2) dopamine receptor (Homo sapiens) (UniProt P14416) (assay: HTS Assay for Allosteric Antagonists of the Human D2 Dopamine Receptor: Primary Screen for Antagonists). Details: HEK293 TREx D2 cells, calcium flux, dopamine EC80; at 10 µM; stronger effect = higher value.
UniProt P14416, sequence (P14416 whole entry, looked up): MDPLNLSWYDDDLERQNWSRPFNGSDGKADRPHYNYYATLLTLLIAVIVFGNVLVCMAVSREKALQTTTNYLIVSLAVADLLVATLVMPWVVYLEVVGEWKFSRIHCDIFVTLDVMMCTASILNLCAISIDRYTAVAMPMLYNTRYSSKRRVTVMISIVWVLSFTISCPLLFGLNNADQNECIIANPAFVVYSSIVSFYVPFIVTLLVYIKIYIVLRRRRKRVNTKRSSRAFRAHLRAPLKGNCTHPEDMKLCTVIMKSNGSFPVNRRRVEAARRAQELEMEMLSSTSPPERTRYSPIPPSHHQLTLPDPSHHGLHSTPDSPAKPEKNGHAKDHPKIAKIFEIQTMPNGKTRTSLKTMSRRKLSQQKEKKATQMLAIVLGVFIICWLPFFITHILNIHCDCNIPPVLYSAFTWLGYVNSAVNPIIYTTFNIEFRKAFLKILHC
Outline: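 Overnight-induced (tetracycline, 30 C) HEK293 T-REx cells carrying force-coupled D2 receive a no-wash calcium dye, then compound, then EC80 dopamine at 180 s; signals are read kinetically throughout.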
In the case of CN1CCN(c2ccc(NS(=O)(=O)c3ccc(Cl)cc3)cn2)CC1, the inhibition is reported as active: 32.7%.
In the case of CCOC(=O)Cn1nc(C)c(NC(=O)COc2ccc(OC)cc2)c1C, the inhibition is reported as 14.1%.
Compound CCn1c2ccccc2c2cc(NC(=O)COc3cc(C)c(Cl)c(C)c3)ccc21 has an inhibition of -7.87%.
Work on CCOc1ccc(-c2csc3ncnc(Nc4cccc(O)c4)c23)cc1 yielded an inhibition of 3.34%.
With Cc1ccccc1C(=O)Nc1ccc(NC(=O)c2cccs2)cc1 the inhibition was -1.87%.
In the case of CCOc1ccc(CCNC(=O)C2CCCN(c3nnc(C)c4c(C)n(-c5ccccc5)nc34)C2)cc1 (centres undefined), the inhibition is reported as -8.72%.
NC(=O)c1c(NC(=O)c2noc3c2CCCC3)sc2c1CCCC2 gave an inhibition of 7.09%.
In the case of CN(CCNC(=O)c1cn(C)c2ccc(S(=O)(=O)N(C)C)cc2c1=O)CCc1ccccc1, the inhibition is reported as active: 45.2%.
COc1ccccc1N1CCN(C(=O)C2CCN(S(=O)(=O)c3cccc4nonc34)CC2)CC1 gave an inhibition of -12.9%.
In the case of Nc1ncc(S(=O)(=O)NCc2ccccc2F)cn1, the inhibition is reported as 15.1%.
Cc1ccc(Nc2cc(C(=O)NC3CCCC3)c3ccccc3n2)cc1C gave an inhibition of -13.2%.
COc1ccccc1OCC(=O)Nc1ccc2c(c1)OCO2 was tested, and the inhibition was active: 32.3%.
For CCOC(=O)c1c(C)n(-c2ccccc2)c2ccc(OC(=O)c3ccccc3Cl)cc12, the inhibition was -5.18%.
In the case of CC(C)COc1ccc(C(=O)NCC2OCCc3ccccc32)cc1 (centres undefined), the inhibition is reported as 6.24%.
With Cc1cccc(CNC(=O)c2ccc(-c3nc(CS(=O)(=O)c4ccccc4)c(C)o3)cc2)c1 the inhibition was 10.9%.
Compound Cc1ccc(NC(=O)COc2ccc3oc4c(c3c2)CCCC4)c(C)c1 has an inhibition of 17.2%.
CN(C)c1ccc(-c2nc(-c3ccccn3)no2)cc1[N+](=O)[O-] gave an inhibition of 9.02%.
Cc1cc(C)n2nc(CNC(=O)c3cccc(Cl)c3)nc2n1 was tested, and the inhibition was -3.36%.
In the case of COc1ccccc1N1CCN(Cc2ccc(-c3ccccc3[N+](=O)[O-])o2)CC1, the inhibition is reported as active: 85.6%.
With CSc1ccc(CCNC(=O)C(C)n2nc(C)c3c(C)n(-c4ccccc4)nc3c2=O)cc1 (centres undefined) the inhibition was 18.1%.
Compound Cc1cc(F)ccc1NC(=O)C1CCCN(c2nnc(-n3c(C)ccc3C)s2)C1 (centres undefined) has an inhibition of 8.24%.
COc1ccc(NC(=O)Cn2c(=O)nc(-c3ccccc3)c3ccccc32)cc1OC gave an inhibition of -0.957%.
In the case of Cn1ncc(C(=O)N2CCN(c3ccccc3)CC2)c1C1CCN(C(=O)OC(C)(C)C)CC1, the inhibition is reported as 1.14%.
Compound Cc1ccc(CCNC(=O)NCc2noc3ccc(C)cc23)cc1 has an inhibition of 18.1%.
In the case of Cc1cccc(NC(=O)CSc2nnc(-c3cccs3)o2)c1, the inhibition is reported as -16.3%.
Cc1cccc(NC(=O)C(c2ccccc2)N2Cc3ccccc3C2=O)c1C (centres undefined) was tested, and the inhibition was -6.39%.
Work on Cc1noc2ncnc(Nc3ccc(F)cc3)c12 yielded an inhibition of -8.12%.
COC(=O)c1sccc1S(=O)(=O)N(CC(=O)Nc1ccc(C)cc1)c1ccccc1 gave an inhibition of 7.96%.
Compound COc1cccc2cc(-c3nnc(Nc4ccccc4C)s3)c(=O)oc12 has an inhibition of -6.11%.
Work on COc1ccccc1N1CCN(C(=O)CCn2cnc3onc(-c4ccc(F)cc4)c3c2=O)CC1 yielded an inhibition of 9.15%.
In the case of COc1ccc(NS(=O)(=O)c2ccc3c(c2)CCN3C(=O)C2CC2)cc1OC, the inhibition is reported as 19.4%.
With Cc1cc(C)c2c(=O)cc(C(=O)NCCc3ccc(S(N)(=O)=O)cc3)oc2c1 the inhibition was 3.1%.
CCNc1nc(N)c(C(=C(C#N)C#N)c2ccccc2)s1 was tested, and the inhibition was active: 45.3%.
Work on COc1cccc(CNC(=O)Cn2c(=O)c3cccn3c3ccc(F)cc32)c1OC yielded an inhibition of 5.92%.
CSc1cccc(CNC(=O)C2CCC(=O)N(CCCN3CCCC3=O)C2)c1 (centres undefined) was tested, and the inhibition was active: 85.7%.
Cc1ccccc1CNC(=O)C(=O)NCC(c1ccco1)S(=O)(=O)c1ccc(F)cc1 (centres undefined) was tested, and the inhibition was -20.9%.
In the case of CCc1ccc(C(C)NC(=S)NC2CCCCC2)cc1 (centres undefined), the inhibition is reported as active: 48.2%.
CCCS(=O)(=O)N1CCC(N2CCN(Cc3ccc(C)cc3)C(=O)C2=O)CC1 was tested, and the inhibition was 2.74%.
Work on Cc1nn(C)c2c1c(-c1ccccc1)cc(=O)n2Cc1ccccc1F yielded an inhibition of -6.65%.
Cc1c(Cl)cccc1NC(=O)N1CCN(Cc2cc(=O)n3nc(-c4ccccc4F)sc3n2)CC1 showed an inhibition of -12.4%.
Compound NC(=O)CSc1ncc2c(n1)-c1ccccc1N(Cc1ccccc1)S2(=O)=O has an inhibition of -0.264%.
With COc1ccc(NC(=O)c2cccc(N3CCCS3(=O)=O)c2)cc1 the inhibition was -3.85%.
Compound CN(C)c1ccc(C(CNC(=O)COc2ccccc2)N2CCOCC2)cc1 (centres undefined) has an inhibition of 2.64%.
In the case of O=C(CN1C(=O)CCSc2ccc(S(=O)(=O)N3CCCC3)cc21)Nc1cccc(Cl)c1, the inhibition is reported as 10.7%.
In the case of Cc1ccc(N/C(N)=N/c2nc(C)cc(C)n2)cc1, the inhibition is reported as active: 31.1%.
For COc1cc(Cl)c(C)cc1NC(=O)CSc1cc(=O)n(C)c2cc(Cl)ccc12, the inhibition was -6.95%.
Cn1ncc2c(NCc3cccc(Cl)c3)ncnc21 showed an inhibition of -25.8%.
Compound CCN(CC)S(=O)(=O)c1ccc2c(c1)N(CC(=O)NCc1ccccc1)C(=O)CS2 has an inhibition of 9.33%.
With CCOc1ccc(NC(=O)Nc2c(C)n(C)n(-c3ccccc3)c2=O)cc1 the inhibition was 15%.

— PubChem BioAssay AID485344 (National Center for Advancing Translational Sciences (NCATS), 2010)
Also: 0% is about no effect.
